Results on 29 molecules are retold here after PubChem BioAssay AID1745853 (National Center for Advancing Translational Sciences (NCATS), 2022).

Holding throughout (assay): Primary Screen for Target Class Profiling of Small Molecule Inhibitors of Methyltransferases
For test [1], the target named is Glycine N-methyltransferase (Homo sapiens) (UniProt Q14749). As to conditions: purified enzyme, MTase-Glo SAH luminescence; measured here: GNMT inhibition; at 40 µM; stronger effect = lower value. The procedure, abridged: (§1)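 Each enzyme was reacted with SAM and its substrate, with compounds tested once at 40 uM; SAH formed was read by MTase-Glo luminescence.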
Test [2] has as its target Guanidinoacetate N-methyltransferase (Homo sapiens) (UniProt Q14353). As to conditions: purified enzyme, MTase-Glo SAH luminescence; measured here: GAMT inhibition; at 40 µM; stronger effect = lower value. The gist of the method:
as §1

For test [3], the target named is Histamine N-methyltransferase (Homo sapiens) (UniProt P50135). As to conditions: purified enzyme, MTase-Glo SAH luminescence; measured here: HNMT inhibition; at 40 µM; stronger effect = lower value. The procedure, abridged:
as §1

In test [4] the target is Nicotinamide N-methyltransferase (Homo sapiens) (UniProt P40261). As to conditions: purified enzyme, MTase-Glo SAH luminescence; measured here: NNMT inhibition; at 40 µM; stronger effect = lower value. The procedure, abridged: as §1
The target of test [5] is Phenylethanolamine N-methyltransferase (Homo sapiens) (UniProt P11086). To be noted: purified enzyme, MTase-Glo SAH luminescence; measured here: PNMT inhibition; at 40 µM; stronger effect = lower value. The gist of the method: as §1

Structures are written as SMILES. The list shows a part of the results. The main result of the screen is listed elsewhere. These columns were measured beside it and carry no call.
% is set by controls: 0 for no effect and ±100 for the full control effect.

On to `COc1ccc(OC)c(CN2C(=O)c3cc4ccccc4n3CC2(C)C(=O)NCc2ccccc2)c1` (stereo not drawn), for which the activity change, negative = inhibition in test [1] was -1.31%; in test [2] it was 2.81%; in test [3], -3.71%; in test [4], 3.82%; in test [5], -6.26%.

Turning to `Cc1ccc(CN2CCOCCNC(=O)[C@H]3CCCC[C@H]32)o1`, the activity change, negative = inhibition in test [1] is -5.73%; in test [2], -2.63%; in test [3], -0.035%; in test [4], -6.9%; in test [5], 10.5%.

Regarding `CCc1ccccc1NC(=O)Cn1nc2n(C)c(=O)c3ccc(C(=O)NC(C)CC)cc3n2c1=O` (stereo not drawn), the activity change, negative = inhibition in test [1] is 6.45%; in test [2], 7.05%; in test [3], 11.3%; in test [4], -1.76%; in test [5] it was 4.31%.

`C[C@H]1CC[C@@]2(OC1)O[C@H]1CC3[C@@H]4CC[C@@H]5C[C@@H](O[C@@H]6O[C@H](CO)[C@@H](O[C@@H]7O[C@H](CO[C@@H]8OC[C@@H](O)[C@H](O)[C@H]8O)[C@@H](O[C@@H]8O[C@H](CO)[C@H](O)[C@H](O)[C@H]8O)[C@H](O)[C@H]7O)[C@H](O)[C@H]6O)CC[C@]5(C)C4CC[C@]3(C)[C@H]1[C@@H]2C` (stereo partly drawn): the activity change, negative = inhibition is -1.93% in test [1]; -2.84% in test [2]; 2.98% in test [3]; -4.76% in test [4]; 4.15% in test [5].

As for `COc1ccnc2[nH]cc(C(=O)C(=O)N3CCN(C(=O)c4ccccc4)C[C@H]3C)c12`, the figures for the activity change, negative = inhibition in test [2], in test [4] and in test [5] were -27.5%, -28.8% and -5.55%, respectively.

As to `C=C1[C@@H](C)[C@H]2[C@H](Cc3c[nH]c4ccccc34)NC(=O)[C@]23C(=O)/C=C/C(=O)[C@H](O)/C(C)=C\[C@@H](C)C/C=C/[C@H]3[C@@H]1O`, the activity change, negative = inhibition in test [1] was 3.85%; in test [2], 6.03%; in test [3] it was 5.81%; in test [4], -8.83%; in test [5], 5.66%.

For the molecule `O=C1CN(Cc2ccccc2F)S(=O)(=O)c2ccccc2N1Cc1ccc(F)cc1`, the activity change, negative = inhibition was -5.59% in test [1]; 0% in test [2]; 3.48% in test [3]; -11.8% in test [4]; -10.6% in test [5].

For the molecule `Fc1ccc(Nc2nc(-c3ccccc3F)no2)cc1`, the activity change, negative = inhibition is -10.4% in test [1]; -1.94% in test [2]; -3.8% in test [3]; -18.8% in test [4]; -7.39% in test [5].

In the case of `CN(CC(=O)N[C@H]1CCOC[C@H]1C1CCOCC1)Cc1ccncc1`, the activity change, negative = inhibition in test [1] is -1.79%; in test [2], -2.16%; in test [3], 1.32%; in test [4] it was -2.46%; in test [5], -0.561%.

With `COc1ccc(CCNS(=O)(=O)c2ccc3oc(=O)c4ncn(C)c4c3c2)cc1OC`, the activity change, negative = inhibition in test [1] is -2.98%; in test [2], 0%; in test [3] it was 4.18%; in test [4], 9.39%; in test [5] it was -3.41%.

`CCC(C)NC(=O)c1ccc2c(=O)n(CC(C)C)c3nnc(SCC(=O)NC(C)(C)C)n3c2c1` (stereo not drawn): the activity change, negative = inhibition in test [1] worked out at 7.18%; in test [2], 1.84%; in test [3] it was 12.6%; in test [4], 4.33%; in test [5] it was 7.01%.

Consider `CN(C)CC1(O)CCC2(CCN(C(=O)c3nccc4ccccc34)CC2)CC1`, for which the activity change, negative = inhibition was -1.43% in test [1]; -4.28% in test [2]; -3% in test [3]; -4.77% in test [4]; -9.43% in test [5].

As to `CC(=O)NCC(=O)NC1CC(C)(C)Cc2nc(N(C)Cc3ccccc3)ncc21` (stereo not drawn), the activity change, negative = inhibition in test [1] was -2.77%; in test [2] it was -3.64%; in test [3], -1.89%; in test [4] it was -8.22%; in test [5], -2.8%.

Take `NCc1ccc(Oc2ncnc3ccccc23)cc1`: the activity change, negative = inhibition is -5.88% in test [1]; 0.794% in test [2]; -7.24% in test [3]; -1.17% in test [4]; -2.81% in test [5].

`O=C(OC1C[C@H]2CC[C@@H](C1)[N+]21CCCC1)C(O)(c1ccccc1)c1ccccc1` (stereo partly drawn): the activity change, negative = inhibition in test [1] was -2.55%; in test [2], 0.078%; in test [3], -0.257%; in test [4] it was -14.5%; in test [5] it was 1.65%.

Regarding `CCOC(=O)c1cc2n(n1)CC(C)(C(=O)NC1CCCCC1)N(c1ccc(NC(C)=O)cc1)C2=O` (stereo not drawn), the activity change, negative = inhibition in test [1] was 4.34%; in test [2], 1.71%; in test [3] it was 3.34%; in test [4], 9.03%; in test [5], 3.6%.

Turning to `CC1(C)C(=O)N(CCN2CCC(C(=O)c3ccc(F)cc3)CC2)c2ccccc21`, the activity change, negative = inhibition is 3.62% in test [1]; 15.2% in test [2]; 10.8% in test [3]; -8.44% in test [4]; 3.55% in test [5].

For `O=C1COC[C@H]([C@H](O)c2ccc(NC(=O)C3CCCC3)cc2)N1`, the activity change, negative = inhibition was -4.3% in test [1]; -7.14% in test [2]; -1.44% in test [3]; -2.39% in test [4]; -4.18% in test [5].

For the molecule `CC1(c2noc(C3CC3)n2)CCN(C(=O)CCc2nc3ccc(Cl)cc3[nH]2)CC1`, the activity change, negative = inhibition in test [1] was -4.97%; in test [2], -6.62%; in test [3], -0.675%; in test [4] it was -19.3%; in test [5] it was -11.1%.

Regarding `COC(=O)c1cc2n(n1)CC(C)(C(=O)NC1CCCCC1)N(c1cc(OC)cc(OC)c1)C2=O` (stereo not drawn), the activity change, negative = inhibition in test [1] turned out to be 6.32%; in test [2] it was 0%; in test [3], 9.9%; in test [4], 10.2%; in test [5] it was 6.36%.

Take `O=C(c1ccccc1)c1c(O)cc(O)cc1O[C@@H]1O[C@H](CO)[C@@H](O)[C@H](O)[C@H]1O`: the activity change, negative = inhibition in test [1] is 0%; in test [2], -10.3%; in test [3] it was 3.33%; in test [4], -17.6%; in test [5], -3.21%.

As to `CCn1nc(CC(C)C)cc1C(=O)N1CCN(S(=O)(=O)CC)CC1`, the activity change, negative = inhibition in test [1] was -3.84%; in test [2], -9.32%; in test [3] it was -2.27%; in test [4] it was -9.59%; in test [5], -9.13%.

On to `COc1ccccc1C(=O)N1CC(Oc2ccc(-c3noc(-c4ccncc4)n3)cc2)C1`, for which the activity change, negative = inhibition in test [1] was -15.1%; in test [2], -1.86%; in test [3], -2.62%; in test [4], -17%; in test [5] it was -8.65%.

Turning to `CCOc1ccc(C(=O)N2CCCC3(C2)NC(=O)N(Cc2cc(C)ccc2C)C3=O)cc1` (stereo not drawn), the activity change, negative = inhibition in test [1] is -2.82%; in test [2], 0.342%; in test [3], -0.189%; in test [4], -6.54%; in test [5], 2.71%.

In the case of `CCc1ccc(S(=O)(=O)N2CCC(C3CCN(C(C)=O)CC3)C2)cc1` (stereo not drawn), the activity change, negative = inhibition in test [1] is -1.25%; in test [2], 1.51%; in test [3] it was 14.5%; in test [4] it was 3.08%; in test [5], 9.75%.

Take `CC(C)CNC(=O)N1CCC(Nc2cccnc2)C1` (stereo not drawn): the activity change, negative = inhibition in test [1] was -3.62%; in test [2], -1.66%; in test [3] it was -0.931%; in test [4], -5.21%; in test [5], -3.58%.

On to `CCOC(=O)c1cc2n(n1)CC(C)(C(=O)NCc1ccccc1OC)N(c1ccc3c(c1)OCO3)C2=O` (stereo not drawn), for which the activity change, negative = inhibition is 7.05% in test [1]; 0% in test [2]; 13.7% in test [3]; 13.6% in test [4]; 6.7% in test [5].

For the molecule `Cc1ccc(C(C(=O)NCc2ccc(O)cc2)N(C)C)cc1` (stereo not drawn), the activity change, negative = inhibition in test [1] is -0.773%; in test [2], -1.76%; in test [3], -1.61%; in test [4] it was -0.728%; in test [5] it was -0.611%.

Regarding `Cc1ccc(Nc2ccn3c(=O)n(CC(=O)Nc4cc(F)ccc4C)nc3n2)cc1`, the activity change, negative = inhibition in test [1] was -1.91%; in test [2], 3.91%; in test [3], -11.3%; in test [4], -10%; in test [5] it was -5.72%.
